Results reported in paper PMC4336329 (PLoS ONE, 2015).
Out of some 310,000 compounds screened, about 14,000 (4.5%) showed an effect of 50% or more. The effect is printed as a negative number. The list shows a part of the results.

Each compound was assayed against human ether-à-go-go-related gene (hERG) potassium channel (human, UniProt Q12809) (assay: primary screen, population patch clamp on CHO cells stably expressing hERG).
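Also: peak tail current of the secondary pulse compared with the same well before compound.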

Sequence of human ether-à-go-go-related gene (hERG) potassium channel (Q12809 whole entry, looked up): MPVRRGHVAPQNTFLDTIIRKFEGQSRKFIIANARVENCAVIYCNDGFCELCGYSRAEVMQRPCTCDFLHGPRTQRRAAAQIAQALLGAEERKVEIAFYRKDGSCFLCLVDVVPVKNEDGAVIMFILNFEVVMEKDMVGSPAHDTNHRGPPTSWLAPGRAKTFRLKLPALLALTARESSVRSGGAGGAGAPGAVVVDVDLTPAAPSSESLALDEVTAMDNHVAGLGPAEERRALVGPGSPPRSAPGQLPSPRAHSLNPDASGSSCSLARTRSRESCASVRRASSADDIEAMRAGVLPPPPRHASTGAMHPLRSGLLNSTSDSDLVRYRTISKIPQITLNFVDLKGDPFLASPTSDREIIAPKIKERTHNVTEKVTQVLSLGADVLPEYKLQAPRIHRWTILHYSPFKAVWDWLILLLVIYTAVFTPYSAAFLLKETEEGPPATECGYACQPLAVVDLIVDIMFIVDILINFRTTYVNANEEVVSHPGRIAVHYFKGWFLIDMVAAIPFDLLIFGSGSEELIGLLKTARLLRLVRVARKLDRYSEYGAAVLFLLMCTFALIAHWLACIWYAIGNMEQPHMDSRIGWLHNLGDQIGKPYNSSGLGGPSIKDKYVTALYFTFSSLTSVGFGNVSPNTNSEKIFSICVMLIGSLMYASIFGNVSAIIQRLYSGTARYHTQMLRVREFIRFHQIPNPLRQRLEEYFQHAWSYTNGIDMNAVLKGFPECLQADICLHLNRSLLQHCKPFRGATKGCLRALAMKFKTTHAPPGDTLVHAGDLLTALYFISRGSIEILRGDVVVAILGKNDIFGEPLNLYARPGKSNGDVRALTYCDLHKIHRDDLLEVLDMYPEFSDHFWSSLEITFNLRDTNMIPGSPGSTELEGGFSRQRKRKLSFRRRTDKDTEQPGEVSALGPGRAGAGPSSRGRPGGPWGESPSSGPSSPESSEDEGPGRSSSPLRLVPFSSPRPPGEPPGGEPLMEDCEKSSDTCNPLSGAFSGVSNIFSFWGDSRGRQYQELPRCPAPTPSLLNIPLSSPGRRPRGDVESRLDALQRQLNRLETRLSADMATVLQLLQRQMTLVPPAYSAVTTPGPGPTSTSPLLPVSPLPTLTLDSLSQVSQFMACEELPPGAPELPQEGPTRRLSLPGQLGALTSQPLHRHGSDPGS

Row | SMILES | hERG current change (%, negative = inhibition) at 10uM [%]
1 | COc1ccc(S(=O)(=O)n2nc(OC(=O)c3ccc(C)cc3)cc2N)cc1 | 5.2
2 | CC(C)(C)CC(=O)Nc1nnc(SCC(=O)NC2CCCCC2)s1 | -36.5
3 | O=S(=O)(c1ccc(Cl)s1)N1CCN(c2ncccn2)CC1 | -2.48
4 | COc1ccc2ccccc2c1/C=N/NC(=O)c1cccc([N+](=O)[O-])c1 | 13.5
5 | CC(C)(C)c1csc(NC(=O)CCc2ccccc2)n1 | -37.7
6 | O=C(NCCOc1ccccc1F)c1cccc(S(=O)(=O)N2CCN(c3ccccc3)CC2)c1 | -3
7 | O=C(c1noc2c1CCCC2)N1CCc2ccccc2C1 | -10.7
8 | COc1ccc(NC(=O)CSc2nnc(C3CC3)n2C)cc1S(=O)(=O)N1CCCCC1 | -28.3
9 | Cc1ccc2c(c1)C1(OCCCO1)C(=O)N2CC#N | 17.3
10 | CC(C)(C)N1C(=O)c2ccc(C(=O)O)cc2C1=O | 16.9
11 | Cc1ccc(NC(=O)COC(=O)c2ccc(OCc3c(C)noc3C)cc2)cc1S(=O)(=O)N1CCOCC1 | -1.39
12 | CCOC(=O)C(CCCOc1ccc(C)cc1)C(=O)OCC | -8.52
13 | CN(C)c1ccc(/C=N/NC(=O)c2ccccc2Cl)cc1 | 10.6
14 | Cc1cc(N2C(=O)C(O)=C(C(=O)c3ccco3)C2c2ccc([N+](=O)[O-])cc2)no1 (stereo not shown) | 10.7
15 | O=C(c1ccc(S(=O)(=O)NCc2ccco2)cc1)N1CCCC(C(F)(F)F)C1 (stereo not shown) | 5.73
16 | CN(CC(=O)Nc1cccc(F)c1)C(=O)COc1cccc2c1OC(C)(C)C2 | -3.5
17 | COc1ccc(CCNC(=O)CSc2nc3[nH]ncc3c(=O)n2-c2ccc(Br)cc2)cc1OC | 5.85
18 | Cc1onc(-c2ccccc2)c1C(=O)NC(=S)NNC(=O)c1cc(-c2ccc(F)cc2)n[nH]1 | 6.44
19 | NS(=O)(=O)c1ccc(CCNC(=O)CSc2ccccc2)cc1 | -3.62
20 | CCN(CC)S(=O)(=O)c1ccc(C(=O)NCc2n[nH]c(=S)n2Cc2ccccc2)cc1 | 13.3
21 | O=S(=O)(CCN1C=CC(C(F)(F)F)=NCC1)c1ccc(Cl)cc1Cl | -15.4
22 | CCCN1C(=O)C(=O)N(CC(=O)c2cc(C)n(C3CC3)c2C)C1=O | -6.28

Row | SMILES | hERG current change (%, negative = inhibition) at 10uM [%]
23 | Cc1ccsc1C(=O)Nc1nccs1 | 8.23
24 | CCN(C(=O)C1CSC2(C)CCC(=O)N12)c1nc2c(C)cccc2s1 (stereo not shown) | 20.4
25 | CCCCNC(=O)c1c(N)n(Cc2ccc3c(c2)OCO3)c2nc3ccccc3nc12 | 15.3
26 | CCC(C)(C)c1ccc(OCC(=O)N(C)C)c(C(C)(C)CC)c1 | -4.24
27 | CCc1ccc(C(=O)NNC(=O)CCN2CCN(Cc3ccccc3)CC2)cc1 | -19.8
28 | O=C(NC1CCN(Cc2ccccc2)CC1)c1cccc(S(=O)(=O)Nc2cc(C(F)(F)F)ccc2Cl)c1 | -48.8
29 | COc1ccc(N2CC(C(=O)Nc3nnc(C4CCCCC4)s3)CC2=O)cc1 (stereo not shown) | 4.63
30 | Cc1cccc(OCCC(=O)Nc2ccc(F)c(F)c2)c1 | -17.1
31 | Cc1cc(SCC(=O)NN)c2cc(Br)ccc2n1 | -1.57
32 | O=C(c1cc(COc2ccc(F)cc2Cl)on1)N1CCCCCC1 | -3.89
33 | CC(=O)c1ccc(N2CCN(CCC#N)CC2)c(F)c1 | 6.77
34 | CCn1c(NCc2ccccc2Cl)nc2ccccc21 | 5.39
35 | O=C(O)CC(NS(=O)(=O)c1ccc(Br)cc1)c1ccco1 (stereo not shown) | 0.143
36 | COCC(C)OC(=O)/C(C#N)=C\c1coc2ccc(C)cc2c1=O (stereo not shown) | -20.9
37 | O=C(c1ccc(C(F)(F)F)cc1)C1CCCN(C(=O)CCc2ccncc2)C1 (stereo not shown) | -59.4
38 | O=C(C(=S)N1CCOCC1)c1c[nH]c2ccccc12 | 6.6
39 | C[C@H]1C=C(C(=O)NCc2ccccc2)O[C@@H](OCc2ccc(CO)cc2)C1 | -10.5
40 | Cc1cc(N2CCC(C)CC2)n2ncc(-c3ccccc3)c2n1 | 1.06
41 | CC(Oc1ccccc1)C(=O)N=C1SC2CS(=O)(=O)CC2N1c1ccccc1 (stereo not shown) | -8.26
42 | Cc1nc(NC(=O)COC(=O)c2cc3c(s2)CCC(C)C3)c(Cl)cc1Cl (stereo not shown) | 12.4
43 | O=C(COC(=O)c1cc(Cl)ccc1Cl)Nc1ccc2[nH]c(=O)[nH]c2c1 | -5.72
